# In PubChem BioAssay AID463173 (ICCB-Longwood Screening Facility, Harvard Medical School, 2010):
# Among all 52,000 compounds or so, about 4,300 (8.3%) were called active. Rule as the data show it: active = survival mostly below about 52% (no sharp cut-off); inactive = mostly above about 56%. The list shows a part of the results.
# System: DeltatarO mutant
# Assay: growth inhibition of S. aureus wild type versus tarO mutant, primary screen, teichoic acid synthesis inhibitors, RN4220, OD600 (AID 463173)
# Conditions: OD600, 18 h, hits give low values, screened at 18.75 µg/mL (by protocol)
row,SMILES,survival
1,COc1ccccc1CNC(=O)CSC1=Nc2ccccc2N=C(c2ccc(F)cc2)C1,inactive: 101%
2,Cc1ccc(Cl)cc1N1CCN(S(=O)(=O)c2ccc3c(c2)CCN3C(=O)C2CCC2)CC1,inactive: 78%
3,CC(C)c1nc2ccc(C(=O)Nc3ccccc3F)cc2o1,inactive: 87%
4,Cc1cc(NC(=O)c2cccc(F)c2)ccc1NC(=O)c1ccco1,inactive: 114%
5,N=c1c2c(-c3ccccc3)c(-c3ccccc3)n(Cc3ccco3)c2ncn1CCO,inactive: 136%
6,CCN(Cc1ccccc1)C(=O)c1cnn(-c2ccc(F)cc2)c1-n1cccc1,inactive: 79%
7,Cc1ccc(NC(=O)c2cnn3c2NC(c2ccccc2)=CC3c2ccccc2)cc1 (stereo not given),inactive: 98%
8,CCCn1c2ccccc2c2nnc(SCC(=O)Nc3cccc(C(C)=O)c3)nc21,inactive: 83%
9,COc1ccccc1OC(C)C(=O)Nc1cccc(-c2nc3ccccc3o2)c1 (stereo not given),active: 18%
10,CC(=O)c1ccc(NC(=O)Cn2nc(N3CCN(c4ccccc4)CC3)ccc2=O)cc1,inactive: 79%
11,CC(=O)c1sc(N2C(=O)c3oc4ccccc4c(=O)c3C2c2ccc(C)cc2)nc1C (stereo not given),inactive: 90%
12,CCNc1nc(NC(N)=S)nc(NC(C)(C)C)n1,inactive: 94%
13,COc1ccc(-c2nc3c(c(SCC(=O)N4CCCCC4)n2)Cc2cc(Cl)ccc2O3)cc1,inactive: 95%
14,Cc1[nH]c(=O)[nH]c(=O)c1/C=N\NC(=O)c1cc2ccccc2o1,inactive: 79%
15,Cc1ccc(NC(=O)Cc2coc3ccc(C(C)C)cc23)cc1Cl,active: 37%
16,CN(C)c1ccc(CNC(=O)Cn2c(=O)oc3cc(S(=O)(=O)N4CCCCCC4)ccc32)cc1,inactive: 74%
17,Cc1ccc(-n2ncc(C(=O)N3CCCCC3)c2C2CCN(C(=O)OC(C)(C)C)CC2)c(C)c1,inactive: 102%
18,CCCS(=O)(=O)c1nc(S(=O)(=O)c2ccc(C)cc2)c(NC)s1,inactive: 89%
19,COc1ccc(-n2c(=O)[nH]c3cc(C(=O)NCCc4ccccc4)ccc3c2=O)cc1OC,inactive: 94%
20,CCOC(=O)c1c(NC(=O)c2ccc(OC)cc2)sc2c1CCCCC2,active: 2%
21,O=C(COc1ccccc1)Nc1ccc2nc(SCC(=O)N3CCOCC3)sc2c1,inactive: 73%
22,COc1ccc(NC(=O)c2oc3ccccc3c2NC(=O)COc2ccc(C(C)C)cc2)c(OC)c1,inactive: 88%
23,O=C(Nc1ccccc1Cl)c1sc2cccc(Cl)c2c1Cl,inactive: 63%

row,SMILES,survival
1,Cn1cnnc1SCc1nc2ccccc2[nH]1,inactive: 96%
2,COc1cccc(NC(=O)Cn2c(=O)n(Cc3ccccc3)c(=O)c3ccccc32)c1,inactive: 125%
3,Cc1ccc(N(CC(=O)Nc2ccc(Cl)cc2)S(=O)(=O)c2cccc3nonc23)cc1,inactive: 92%
4,Nc1nc(=S)[nH]c2c1C1(CCCC1)Cc1ccccc1-2,inactive: 99%
5,CN1C(C(=O)Nc2ccc(OC(F)(F)F)cc2)=CC(c2cccs2)=NS1(=O)=O,active: 31%
6,Cc1ccc(S(=O)(=O)N2C(=O)CCC2C(=O)NCc2ccco2)cc1 (stereo not given),inactive: 77%
7,O=C(Nc1ccccc1)C(Cc1cccs1)c1nn[nH]n1 (stereo not given),inactive: 95%
8,CCn1cc(C(=O)NCc2ccc(Cl)cc2)c(=O)c2cc(S(=O)(=O)N(C)C3CCCCC3)ccc21,inactive: 70%
9,CCOC(=O)C1=C(CN2CCN(c3cccc(Cl)c3)CC2)NC(=O)NC1c1ccc(Cl)cc1 (stereo not given),inactive: 69%
10,CC(C)(C)c1ccc(OCc2nnc(-c3ccccc3)o2)cc1,inactive: 49%
11,COc1ccccc1NC(=O)N1CCN(Cc2ccccc2)CC1,inactive: 87%
12,Cc1ccc(CSc2nnc3[nH]c(=O)cc(-c4ccccc4)n23)cc1,inactive: 78%
13,O=C(CSc1nnc(-c2ccc(F)cc2)o1)N1CCCc2ccccc21,inactive: 72%
14,COc1cc(OC)c(NS(=O)(=O)c2ccc3oc(=O)c4ncn(C)c4c3c2)cc1Cl,inactive: 118%
15,COc1ccc(N2CCN(CCCNC(=O)Nc3ccccc3)CC2)cc1,inactive: 102%
16,COc1ccc(C2C=C(c3ccc(Cl)c(Cl)c3)Nc3ncnn32)cc1 (stereo not given),active: 6%
17,C/C(=N/NC(=O)CC1N=C(Cc2ccccc2)NNC1=O)c1ccco1 (stereo not given),inactive: 82%
18,O=C(CCC1N=C2c3ccccc3N=C(SCc3ccc(Cl)cc3)N2C1=O)N1CCN(c2ccccc2)CC1 (stereo not given),inactive: 91%
19,COc1ccc(-n2c(SCC(=O)NCc3ccc(C)cc3)nc3n[nH]c(C)c3c2=N)cc1,inactive: 87%
20,COc1ccc(OC)c(N=c2oc3cc(O)ccc3cc2C(=O)Nc2ccccn2)c1,inactive: 70%
21,Fc1ccc(-c2nc(Nc3cccc(C(F)(F)F)c3)nc3c2COc2ccccc2-3)cc1,inactive: 54%
22,COC(=O)c1sccc1S(=O)(=O)N(CC(=O)NCc1ccc(C)cc1)c1ccc(C)cc1,inactive: 72%
23,O=C(NCCc1ccncc1)Nc1c[nH]c2ccccc2c1=O,inactive: 89%

row,SMILES,survival
1,Cc1cccc(Cc2c(C)nc3c(-c4ccccc4)c(C)[nH]n3c2=O)c1,active: 16%
2,CCC(=O)N(Cc1cccnc1)Cc1cc2cc(OC)ccc2[nH]c1=O,inactive: 89%
3,CC1CCCN(S(=O)(=O)c2ccc3c(c2)CCN3C(=O)CCC(=O)O)C1 (stereo not given),inactive: 96%
4,Cc1cc(C(=O)Nc2ccc(-n3c(C)nc4ccccc4c3=O)cc2)ccc1[N+](=O)[O-],inactive: 131%
5,CCN1CCN(C(=O)c2cccs2)CC1,inactive: 99%
6,COc1ccc(NC(=O)CCCn2nc(C)c3sc4ccccc4c3c2=O)cc1,inactive: 81%
7,COc1ccc(S(=O)(=O)NCCSc2nnnn2-c2ccccc2)cc1,inactive: 66%
8,O=C1Nc2ccccc2C(=O)N2CCCC12 (stereo not given),inactive: 80%
9,CCN(Cc1ccccc1)S(=O)(=O)c1ccc(-c2coc(C)n2)cc1,inactive: 99%
10,CC(CNC(=O)c1ccc2nc(Cc3ccccc3)oc2c1)c1ccccc1 (stereo not given),inactive: 70%
11,Cc1cc(-n2c(C)nc3ccccc3c2=O)ccc1NC(=O)C(F)(F)F,inactive: 69%
12,O=C(Cn1ncc2c3ccccc3n(Cc3ccc(F)cc3)c2c1=O)NCc1cccs1,inactive: 92%
13,COc1cccc(C2CC(=O)Nc3c2c(=O)[nH]c2nc4ccccc4n32)c1 (stereo not given),inactive: 183%
14,COc1ccc(C(=O)NCC(c2ccc3c(c2)OCO3)N2CCN(c3ccccc3F)CC2)cc1 (stereo not given),inactive: 84%
15,O=C(COc1ccc([N+](=O)[O-])cc1)Nc1nc2c(s1)CCCC2,inactive: 90%
16,O=C(NCC(c1ccc(Cl)cc1)N1CCOCC1)c1ccccc1F (stereo not given),inactive: 88%
17,CCOc1ccc(-c2nnc(SCC(=O)Nc3cccc(OC)c3)nc2-c2ccc(OCC)cc2)cc1,active: 0%
18,CCc1ccc(NC(=O)Cn2c(=O)n(CCCCC(=O)NCCc3ccc(Cl)cc3)c(=O)c3ccccc32)cc1,inactive: 110%
19,O=c1[nH]c2ccc(NCc3ccc(-c4ccc(Br)cc4)o3)cc2[nH]1,inactive: 57%
20,CCOC(=O)c1c(NC(=O)c2nc(S(C)(=O)=O)ncc2Cl)sc(C(C)=O)c1C,active: 6%
21,Cc1ccc2ncc(C(=O)Nc3ccc(OC(F)(F)F)cc3)c(=O)n2c1,inactive: 88%
22,COc1cc(OC)cc(-c2nc(-c3ccc4c(c3)[nH]c(=O)n4C)no2)c1,inactive: 94%
23,O=C1CCCc2cc(S(=O)(=O)N3CCCC(C(=O)NCc4ccc(Cl)cc4)C3)ccc2N1 (stereo not given),inactive: 86%

row,SMILES,survival
1,Cc1ccccc1-c1nnn(CC(=O)Nc2sc3c(c2C#N)CCC(C(C)(C)C)C3)n1 (stereo not given),inactive: 71%
2,CCOc1ccc(-c2nc3c(c(SCC(=O)N4CCCCC4)n2)Cc2cccc(OC)c2O3)cc1,inactive: 68%
3,CCCCN1C(=O)C(O)(CC(=O)c2ccc(C(C)(C)C)cc2)c2ccccc21 (stereo not given),inactive: 28%
4,O=C(Nc1ccccc1C(F)(F)F)n1ncc2cc(Cl)ccc21,inactive: 104%
5,COc1ccc2cc3c(N)nn(C(=O)c4ccc(OC)c(OC)c4)c3nc2c1,inactive: 86%
6,Cc1ccc2c(c1)nnn2C1CCN(C(=O)Nc2ccc(C#N)cc2)CC1,inactive: 91%
7,O=C(Nc1nncs1)C1c2ccccc2Oc2ccccc21,inactive: 108%
8,CCOC(=O)c1[nH]c2ccccc2c1NC(=O)c1ccc(Br)cc1,inactive: 95%
9,Cc1ccc2c(c1)N(CCCC(=O)Nc1cccc(C(F)(F)F)c1)C(=O)CO2,inactive: 74%
10,COc1cccc(CNC(=O)C2CCN(S(=O)(=O)c3ccc4c(c3)CCCN4C(C)=O)CC2)c1,inactive: 113%
11,O=C(Cn1c(=O)nc(-c2ccccc2)c2cc(Cl)ccc21)Nc1ccc(F)c(Cl)c1,inactive: 75%
12,CCOc1cc(C#N)c(NC(=O)Cn2nnc(-c3ccc(C)cc3)n2)cc1OCC,active: 42%
13,COc1cccc(CNC(=O)c2ccc(-n3c(C)cc4c3CCC(C)C4)cc2)c1 (stereo not given),inactive: 55%
14,CN(C(=O)c1cccc(C#N)c1)c1nnc(C2CCOC2)s1 (stereo not given),inactive: 100%
15,Cc1cccc(CSc2ncc(Cl)c(C(=O)Nc3nc4ccc(F)cc4s3)n2)c1,active: 33%
16,CCOc1ccc(NC(=O)c2ncoc2-c2ccco2)cc1,inactive: 89%
17,COc1cc(NC(=O)Cn2cc(C(=O)c3ccc(F)cc3)c(=O)c3ccc(C)nc32)cc(OC)c1,inactive: 74%
18,Cc1ccc2nc3c(cc(C#N)c(=O)n3-c3nnc(SCc4ccccc4)s3)c(=O)n2c1,inactive: 75%
19,CC1=C(c2ccc(Cl)cc2)S(=O)(=O)N=C1N1CCN(c2cccc(C)c2C)CC1,inactive: 83%
20,Cc1cccc(NC(=O)CSc2nc3ccc(NC(=O)c4ccccc4)cc3s2)c1,inactive: 75%
21,COc1cccc(CN2C(=O)c3ccccc3Sc3ccc(C(=O)OCc4ccco4)cc32)c1,inactive: 87%
